# Reference: PubChem BioAssay AID248 (DTP/NCI, 2004)
# Toxic doses and inconclusive results are not listed. The source holds more than one record for some entries. This is not the full list of results. The source may hold further records. The records of an entry repeat one measurement (runs, samples, wells, individuals or studies).
# System: L1210 leukemia ip in BDF1 mice, survival T/C
# Test: NCI In Vivo Anticancer Drug Screen. Data for tumor model L1210 Leukemia (intraperitoneal) in B6D2F1 (BDF1) mice
# Settings: endpoint: mean survival time, higher = longer survival
compound,measurement,setting,value
CC1(COCCOCC2(C)CO2)CO1 (configuration not stated),T/C,"dose: 600.0 mg/kg/injection, schedule: Q01DX009 (ip), vehicle: saline",123 % of control and 167 % of control
CS(=O)(=O)OCCN(CCOS(C)(=O)=O)c1ccc(C=Nc2cccc(Cl)c2)cc1,T/C,"dose: 40.0 mg/kg/injection, schedule: Q04DX003 (ip), vehicle: Klucel (hydroxypropylcellulose) (HPC)",120 % of control and 158 % of control
